No constants are given. Whether binding was seen depends on the method and setting. In cells and extracts the contact can be indirect. Some binding calls cover weakened binding; strength is not graded here. Where a sequence is shown, tags or fusion partners need not be part of it. Values belong to the molecule of their own block, whether it stands above or below them.
Legend:
[1] = biological target: T1, GFP-Aub (Aubergine) (Drosophila) (UniProt O76922); assay: co-IP; 0-2 h embryo extracts in IP buffer (20 mM Tris pH 7.5, 150 mM NaCl, 0.2% NP-40) with RNase inhibitor; IP with anti-GFP, anti-HA or anti-PABP, 2.5 h at 4 °C; western blot
T1 sequence: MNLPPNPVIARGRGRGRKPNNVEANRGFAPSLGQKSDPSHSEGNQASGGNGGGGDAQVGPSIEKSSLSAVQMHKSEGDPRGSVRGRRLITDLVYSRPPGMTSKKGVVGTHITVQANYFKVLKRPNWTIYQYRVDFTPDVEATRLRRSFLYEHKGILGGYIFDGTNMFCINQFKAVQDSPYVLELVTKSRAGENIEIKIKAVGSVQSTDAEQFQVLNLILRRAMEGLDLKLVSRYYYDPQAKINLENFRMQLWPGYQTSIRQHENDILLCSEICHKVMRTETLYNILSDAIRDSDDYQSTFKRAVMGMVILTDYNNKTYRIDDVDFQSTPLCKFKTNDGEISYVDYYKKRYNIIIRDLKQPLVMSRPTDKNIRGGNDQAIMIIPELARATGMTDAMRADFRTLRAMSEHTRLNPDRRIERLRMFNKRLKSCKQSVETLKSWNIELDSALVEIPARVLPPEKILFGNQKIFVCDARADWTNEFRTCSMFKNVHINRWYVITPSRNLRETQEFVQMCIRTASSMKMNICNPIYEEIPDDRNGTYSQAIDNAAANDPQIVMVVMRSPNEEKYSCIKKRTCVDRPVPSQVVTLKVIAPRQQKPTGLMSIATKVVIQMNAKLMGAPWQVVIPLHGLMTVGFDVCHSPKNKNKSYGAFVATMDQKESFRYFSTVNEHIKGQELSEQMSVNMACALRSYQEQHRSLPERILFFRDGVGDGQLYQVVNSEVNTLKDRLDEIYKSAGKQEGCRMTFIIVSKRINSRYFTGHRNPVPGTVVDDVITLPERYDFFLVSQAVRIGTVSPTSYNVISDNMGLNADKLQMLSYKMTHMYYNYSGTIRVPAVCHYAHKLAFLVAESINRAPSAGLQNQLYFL

By UniProt entry, the sequences of proteins in these tests, tags left out. Where a name states a change or a piece, a line headed by the entry shows the natural chain unless it says otherwise. Residues count along the entry.
UniProt P21187: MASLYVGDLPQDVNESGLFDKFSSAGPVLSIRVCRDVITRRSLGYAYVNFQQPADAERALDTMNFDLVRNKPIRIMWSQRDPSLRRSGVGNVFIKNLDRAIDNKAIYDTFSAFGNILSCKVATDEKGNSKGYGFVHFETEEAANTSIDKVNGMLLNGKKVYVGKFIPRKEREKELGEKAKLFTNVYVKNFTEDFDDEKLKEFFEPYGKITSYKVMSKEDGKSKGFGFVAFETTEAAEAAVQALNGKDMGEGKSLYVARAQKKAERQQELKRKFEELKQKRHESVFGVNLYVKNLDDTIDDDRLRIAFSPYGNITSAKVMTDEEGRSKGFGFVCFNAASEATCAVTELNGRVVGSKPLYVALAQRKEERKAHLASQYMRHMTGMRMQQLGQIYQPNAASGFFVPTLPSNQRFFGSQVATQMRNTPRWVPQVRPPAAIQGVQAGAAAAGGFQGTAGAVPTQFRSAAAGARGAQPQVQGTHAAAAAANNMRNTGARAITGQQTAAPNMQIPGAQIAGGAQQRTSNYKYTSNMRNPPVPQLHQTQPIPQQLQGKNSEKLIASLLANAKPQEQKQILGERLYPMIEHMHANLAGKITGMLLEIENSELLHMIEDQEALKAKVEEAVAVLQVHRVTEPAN
GST-PABC (PABP): residues 552-629 of P21187

[2] = biological target: T2, FLAG-FFL-Aub (Drosophila) (UniProt O76922); assay: co-IP; LUMIER (quantitative luminescence-based coIP): FLAG-FFL-Aub and HA-RL fusions transiently expressed in S2R+ cells; lysates in HNTG buffer on plates coated with anti-FLAG, 3 h on ice; Renilla and Firefly luciferase activities read; control without antibody
T2 sequence: T1 sequence

[3] = biological target: GST-PABC (PABP) (Drosophila) (UniProt P21187); assay: pull-down; GST fusions of PABP domains immobilised on glutathione-Sepharose beads; in vitro-translated HA-Aub fragments; 50 mM HEPES pH 7.5, 500 mM NaCl, 0.5% NP-40, with 0.2 µg/µL RNase A; 1 h at 4 °C then 30 min at room temperature; anti-HA western blot; only the target purified

Molecule: HA-RL-PABP (from UniProt P21187 1-634)
binding [2]: binds

B1: HA-RL-eIF3b (protein, UniProt Q0E940 1-690)
chain: MAKKKSEEHSGTDANDSDYQEEPNFDDPPGFVDNISDEDLLGDMLAQRPSEADGVESVVVVDNIPKVEPVRLEKLKLVINKLFSNYGEIVNVVYPVDEEGKTKGYAFMEYKQARQAEEAVKKLNNHRLDKNHTFAVNLFTDFQKYENIPEKWEPPTVQTFKVQSDLYNFINDPDTYDQYCVAAETAPNCVQVGFWQNVLPEPFELETRERFTDTFVKWSPLGTYVVTFHKPGVAIWGGSSFQKIQKFPHPGTQFVEFSPCENYLVTYGPTPTGQKIIIWDIRTGAEKRSFVADGMSVLSMFRWSHDDKFVARMGENSIHIYETPSFYLLDLKSIKIPGIRGFSWSPTDNVIAYWVEEQNQIPARVTLMEIPKKREIRNKNLFHVADCKLHWQKSGDYLCVKVDRYSKLKKDKKDLDVKFLGMFYNFEIFHMREKEIPVDSVEIRELILAFAWEPVGNKFSIIHGETNSSNVSFYEVNKGVKPSLVKRLEKKSCTHLFWSPRGQFIVMANLTMGTFEFVDSTNDYIITASPDHFRASEVEWDPTGRYVVTGVSSWKVKEDTGFNMYTFQGRIIKRTILKNFVQFLWRPRPPTLLSEEKQKEIKKNLKKYYAAFEQKDRLRLTRASKELLEKRSQLRETFMEYRNKRIAEWAEQKSRRIMLRGHVDTDNLETDEVDEEIVEFLVKEEVTLLE
binding [2]: binds

B3: HA-Aub(1-482) (domain or fragment, UniProt O76922 1-482)
chain: MNLPPNPVIARGRGRGRKPNNVEANRGFAPSLGQKSDPSHSEGNQASGGNGGGGDAQVGPSIEKSSLSAVQMHKSEGDPRGSVRGRRLITDLVYSRPPGMTSKKGVVGTHITVQANYFKVLKRPNWTIYQYRVDFTPDVEATRLRRSFLYEHKGILGGYIFDGTNMFCINQFKAVQDSPYVLELVTKSRAGENIEIKIKAVGSVQSTDAEQFQVLNLILRRAMEGLDLKLVSRYYYDPQAKINLENFRMQLWPGYQTSIRQHENDILLCSEICHKVMRTETLYNILSDAIRDSDDYQSTFKRAVMGMVILTDYNNKTYRIDDVDFQSTPLCKFKTNDGEISYVDYYKKRYNIIIRDLKQPLVMSRPTDKNIRGGNDQAIMIIPELARATGMTDAMRADFRTLRAMSEHTRLNPDRRIERLRMFNKRLKSCKQSVETLKSWNIELDSALVEIPARVLPPEKILFGNQKIFVCDARADWTNEFR
binding [3]: no binding

B4: HA-Aub(476-866) (domain or fragment, UniProt O76922 476-866)
chain: DWTNEFRTCSMFKNVHINRWYVITPSRNLRETQEFVQMCIRTASSMKMNICNPIYEEIPDDRNGTYSQAIDNAAANDPQIVMVVMRSPNEEKYSCIKKRTCVDRPVPSQVVTLKVIAPRQQKPTGLMSIATKVVIQMNAKLMGAPWQVVIPLHGLMTVGFDVCHSPKNKNKSYGAFVATMDQKESFRYFSTVNEHIKGQELSEQMSVNMACALRSYQEQHRSLPERILFFRDGVGDGQLYQVVNSEVNTLKDRLDEIYKSAGKQEGCRMTFIIVSKRINSRYFTGHRNPVPGTVVDDVITLPERYDFFLVSQAVRIGTVSPTSYNVISDNMGLNADKLQMLSYKMTHMYYNYSGTIRVPAVCHYAHKLAFLVAESINRAPSAGLQNQLYFL
binding [3]: no binding

Continued, values first:

binding [1]: binds
Molecule: poly(A)-binding protein (PABP), endogenous (from UniProt P21187 1-634)

binding [2]: binds
B2: HA-RL-eIF3h (protein, UniProt Q9U9Q4 1-338)
chain: MANRANRHAARTEDSDNTINYVQCDGLAVMKMVKHCHEESSNMDLAQGALLGLVVDKCLEITNCFPFPKSGDETMDEEMYQLTVMRRLRRVNVDHLHVGWYQSSDVGNSLSMALLESQYHYQTSIEESVVVVYDTQKSSRGFLCLKAYRLTPQAIQMYKDGDFTPEAFRTLKVGYENLFAEIPIVIKNSPLTNIMMSELNELLPEDKGHNFLDLGTATVLENQMRSLIERVDELYQEAVRYNKYQQVVFKQDTEKHRALAKLAAENAVRTSKGEPTVPEEEVIKQFRPMTAPNRLTATITSGQINTHAQHIAQFCSQSLAKLFITESLQIAKEAKETK

— publication PMC7196074
